# In the supplement of paper PMC3334620:
# In all, about 33,000 sequences were measured (“E-score (-0.5 to 0.5)”: median about -0.021, highest 2% from about 0.32 on). Some of the results follow.
# Biological target: T1, Zap1 (UniProt P47043)
# T1 sequence: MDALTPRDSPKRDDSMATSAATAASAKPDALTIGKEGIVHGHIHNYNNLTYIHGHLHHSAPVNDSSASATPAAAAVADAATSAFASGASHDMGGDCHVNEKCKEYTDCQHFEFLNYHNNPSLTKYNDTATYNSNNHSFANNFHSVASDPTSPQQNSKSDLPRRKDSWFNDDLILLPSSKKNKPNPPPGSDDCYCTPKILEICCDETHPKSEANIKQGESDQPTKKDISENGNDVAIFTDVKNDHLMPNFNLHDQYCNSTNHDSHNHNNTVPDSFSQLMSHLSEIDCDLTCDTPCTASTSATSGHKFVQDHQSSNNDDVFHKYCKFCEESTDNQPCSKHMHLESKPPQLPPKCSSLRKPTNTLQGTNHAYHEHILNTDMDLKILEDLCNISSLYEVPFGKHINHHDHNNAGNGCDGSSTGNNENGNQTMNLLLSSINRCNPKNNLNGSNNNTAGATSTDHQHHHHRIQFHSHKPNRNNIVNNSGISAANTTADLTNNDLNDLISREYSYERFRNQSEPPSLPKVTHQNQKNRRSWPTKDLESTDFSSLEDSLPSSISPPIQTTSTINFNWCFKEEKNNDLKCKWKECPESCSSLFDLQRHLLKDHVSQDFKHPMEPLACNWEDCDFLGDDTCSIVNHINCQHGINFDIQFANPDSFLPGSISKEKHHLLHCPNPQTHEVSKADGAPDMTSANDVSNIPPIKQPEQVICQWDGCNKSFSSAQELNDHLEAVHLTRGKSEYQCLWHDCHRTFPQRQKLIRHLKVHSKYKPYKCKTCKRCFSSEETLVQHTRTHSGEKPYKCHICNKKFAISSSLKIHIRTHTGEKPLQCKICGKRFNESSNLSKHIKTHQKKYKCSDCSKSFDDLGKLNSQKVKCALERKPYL
# Experiment: PBM E-score (8-mer binding enrichment) (E-score (-0.5 to 0.5)); higher = stronger / more preferred TF binding; most listed sequences are background and not binding sites
# Settings: protein concentration: 200 nM; construct: GST-full length
# Outline: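 E-scores (a modified Wilcoxon-Mann-Whitney statistic) were assigned by the Universal PBM Analysis Suite to every ungapped eight-base word pooled with its reverse complement. The input came from universal all-10-mer Agilent arrays made double-stranded by primer extension and probed with GST-tagged yeast transcription factors at about 100-200 nM. Fluorescent anti-GST detected bound protein, and masliner normalised the scans.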
row,Sequence,PBM E-score
1,ACTTCGTA,-0.16
2,AGCGTCAG,-0.136
3,ACTTACCC,0.113
4,ACGACCTG,-0.111
5,CCCACACA,-0.0115
6,AAGTGAGC,-0.11
7,TAAGCCGA,-0.00581
8,GGGGATGA,-0.192
9,ATAAACCC,0.308
10,CAAACAAC,0.263
11,ACTTCTGA,-0.11
12,GTAAGCTA,-0.0341
13,ACTACCTC,0.356
14,CGCGATGC,-0.197
15,CTTCTCCA,-0.276
16,ACAGGTGA,0.0408
17,AGGGTCCG,-0.0112
18,AGTTCCCA,0.093
19,CATATCGG,-0.0626
20,TGTGTCAA,0.073
21,CAGGACGC,-0.186
22,CAAATATA,-0.00535
23,AGCGGTAG,-0.0368
24,CAGGGGGC,-0.223
25,GCCCGCGA,-0.0219

row,Sequence,PBM E-score
1,GTCCTGGA,-0.202
2,ACCTGTAT,0.257
3,AAAATCGG,-0.0581
4,GACGATGA,-0.134
5,CCGCGTTC,0.0519
6,GAAAAATC,0.0472
7,CTGTCTAC,-0.117
8,GACGTTTA,-0.109
9,ACTGGCCG,-0.279
10,AGGATGTA,-0.0509
11,ATAGAAGC,-0.0622
12,CGTAGAAC,-0.0192
13,AACTCACC,-0.0088
14,ACAATCTC,-0.12
15,GTTTGAGA,0.0992
16,TAAGCAAA,-0.0618
17,CAGTACCG,0.104
18,GCAACGGA,-0.117
19,TATTTAAA,0.261
20,GTAAGACA,0.00958
21,AATTGCAC,0.0718
22,AGTTCCAA,0.14
23,GGGACCGA,-0.117
24,GGTATTAC,0.16
25,CGTACTGC,-0.194

row,Sequence,PBM E-score
1,AATACCCA,0.158
2,AAACAAGG,0.0392
3,CAGGGTTC,0.214
4,CATTGGGG,-0.135
5,AAAGCGAA,0.0139
6,ATCCATTC,0.0275
7,AGTCTAGG,-0.183
8,AGGGGCAA,-0.164
9,AGTGTTGA,-0.00039
10,AAGTGATG,-0.228
11,GCACCGAA,-0.0792
12,AATTCGAG,-0.131
13,CCATTTAA,0.145
14,ATCCTTGG,-0.139
15,AGAAAAAA,0.0725
16,CACTCAGC,-0.23
17,ACTTCTCG,-0.0464
18,AACTCGTC,0.041
19,GGATTCGA,-0.103
20,AAGTTGAG,-0.0772
21,AAGACTGT,-0.345
22,ACGAAACC,0.222
23,CAGGTCGA,0.0408
24,GACGTGCC,-0.287
25,TCCCTGCA,0.0185

row,Sequence,PBM E-score
1,AGGGGGTC,-0.354
2,ATGGCCTA,-0.0694
3,ATTAACGG,0.0866
4,GTTGAGAA,-0.027
5,GTGTCAGA,0.0459
6,GTACTGCA,0.0754
7,ACTGCTCT,-0.00554
8,GACCAATC,0.182
9,CCCGGGAG,0.0949
10,CATAAGTC,-0.069
11,CTACATCC,-0.223
12,CAGTACAC,0.0429
13,AATAGTGC,0.0684
14,GGACGTCC,-0.234
15,CCCCAACC,0.208
16,AGAAAGAC,0.0317
17,GAAATGCC,-0.0267
18,GATTTCGA,-0.00027
19,CAGAACAG,-0.114
20,AGCGGTGA,-0.0388
21,ACTAAGAG,-0.0689
22,AGTAATAA,0.137
23,CGCATGCA,0.0118
24,AGGCCGTA,0.132
25,GAGCAGCC,-0.199

row,Sequence,PBM E-score
1,GTATGTCA,0.0926
2,GCGCACCA,-0.0327
3,CCTGCTAA,-0.0998
4,AGCCGTAA,0.0628
5,TCTAAACA,-0.0187
6,AACACTGG,-0.0654
7,CGATGGAA,-0.0794
8,ACTCTTCC,-0.0943
9,ACAGCCAG,-0.152
10,ATTCATCA,0.0213
11,GAGTAGAA,0.0322
12,ATAAGAGC,-0.198
13,GAAGACCA,0.0297
14,ACGCGGCC,-0.0697
15,CGGAAGGC,-0.069
16,AGGTAGTA,0.337
17,CAGCCCGA,-0.192
18,ACGCAGCG,-0.108
19,AGGAACAC,0.183
20,AGTCATTC,-0.193
21,ATGCGACG,-0.222
22,CTTACGAA,0.0217
23,TACTGGCA,-0.0304
24,GAGGGCAA,-0.0412
25,TACTCGGA,0.0978

row,Sequence,PBM E-score
1,CACCTAGA,-0.138
2,AACCTACA,0.264
3,AAGAGGAT,-0.179
4,ACAAGATC,-0.0624
5,CTATGCAG,-0.0853
6,AAAATTGT,0.166
7,GACCTTTA,0.401
8,GCACGGGA,-0.222
9,CTGCCCGC,-0.161
10,CGGTTATA,0.405
11,GAAGCGTA,-0.181
12,ACTGAGGC,-0.175
13,AATCTATC,0.0923
14,AACTGGAT,-0.0687
15,AATACTCC,0.0467
16,CAGTGCCC,-0.237
17,GAACTAAC,0.0342
18,CGTCGGGC,-0.177
19,CTTATCCC,-0.163
20,CCTTTCCA,0.0518
21,CGATAACC,0.46
22,GCCTCTAA,-0.088
23,GGTCAGAC,0.103
24,ATCCATCA,-0.108
25,GGCGAGAC,-0.127

row,Sequence,PBM E-score
1,ATTTTGTC,0.0902
2,AAGTTATT,0.222
3,CAGTCGAA,-0.21
4,GATCTGAA,-0.117
5,ACGCTAAA,-0.0724
6,ACCTTCAT,0.123
7,GGCCATCA,0.157
8,ATAAAGTG,0.191
9,CCTAGGAA,0.106
10,GATGTCTA,-0.0324
11,CCTTTACG,0.191
12,AATGGAAT,0.126
13,CTGAAGCC,-0.31
14,CTGACTCA,-0.0719
15,CAGTACGC,-0.0967
16,CAATGTGG,-0.0265
17,ACTAGATA,0.115
18,ATAGTTTC,-0.17
19,AAACACGC,-0.0239
20,GACCTCTA,0.318
21,CAAGTAGG,-0.239
22,GACGATCA,-0.0273
